Source: the BET-seq Pho4 binding data (Le et al. 2018)
Some of the results follow. Values were computed here from the reads of four pooled replicates and scatter widely.

Molecular target: T1, Pho4 (S. cerevisiae) (UniProt P07270)
T1 sequence: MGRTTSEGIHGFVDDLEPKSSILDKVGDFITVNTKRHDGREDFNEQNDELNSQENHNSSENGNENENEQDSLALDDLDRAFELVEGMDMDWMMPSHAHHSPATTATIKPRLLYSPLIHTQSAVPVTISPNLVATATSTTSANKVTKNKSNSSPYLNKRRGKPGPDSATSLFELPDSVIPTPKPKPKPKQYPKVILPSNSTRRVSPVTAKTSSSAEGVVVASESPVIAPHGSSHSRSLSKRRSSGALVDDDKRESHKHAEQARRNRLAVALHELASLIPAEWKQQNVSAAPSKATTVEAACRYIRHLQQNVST
Experiment: relative binding free energy (BET-seq); higher = weaker binding
Settings: reference: library average

Sequence	relative binding free energy [kcal/mol]
AGCTGCACGTGCGGGG	-0.06
GGGATCACGTGTACGG	0.07
TGAATCACGTGGGTTT	0.06
ATAGACACGTGCGAGG	0.02
ATCAGCACGTGTAGTT	-0.03
TGGGGCACGTGTGTAT	0.02
GTAGTCACGTGGTTGT	0.17
AAAGTCACGTGTGGCA	0.24
GTATTCACGTGTTGAG	0.33
TACGGCACGTGATTAG	0.01
CTGGTCACGTGCGTAT	0.01
AGGTACACGTGGGCAG	-0.13
GGAGTCACGTGAGTCT	0.3
AGTTACACGTGGGTGT	0
CGGTTCACGTGGCAGA	0.42
TAGTTCACGTGCGAGT	0.24
CGAATCACGTGTAGGT	0.13
CGTGTCACGTGTTGCT	0.03
TAGGCCACGTGGTAAT	-0.12
GAATACACGTGAGGGT	0.17
ATGGGCACGTGGTTGT	-0.11
CTGTTCACGTGGGGGA	0.11
AGACACACGTGTGTTG	0.2

Sequence	relative binding free energy [kcal/mol]
TTGGGCACGTGGGCGA	-0.3
GGGTGCACGTGAGGCC	0.17
GGGGGCACGTGGAGCG	-0.07
GGGACCACGTGTAGGG	0.06
GTCAGCACGTGTTTTT	0.13
GAGTACACGTGTTTTG	0.06
CAAGTCACGTGGGAAT	0.14
CTGTCCACGTGTTTGT	0.11
TACTGCACGTGTGAAG	0.13
GGTGTCACGTGGTCCG	-0.02
TTTGCCACGTGATAGT	0.05
TTTGTCACGTGCAAGG	0.18
GGTCCCACGTGGTGGG	-0.2
TCTAACACGTGATGGG	0.11
GGCGTCACGTGGCGGG	0.14
TGTAACACGTGGGGCG	-0.05
TTGATCACGTGTAGGC	0.21
TGGTGCACGTGACGGT	0.13
GTTATCACGTGGAATG	0.16
GAGCTCACGTGTTGTA	0.25
CGTGTCACGTGGCGAT	-0.01
GGTGCCACGTGTTGAT	-0.12
TGGTTCACGTGGTGCT	0.23

Sequence	relative binding free energy [kcal/mol]
ATTGTCACGTGGATTT	0.11
TTCACCACGTGTGTGG	0.05
TTCGGCACGTGAGGGC	0.21
GAATGCACGTGGGTTA	0.03
GCGGACACGTGGAGTG	-0.04
GGTATCACGTGTATTG	0.1
GTATCCACGTGGGAGG	-0.08
TGCAGCACGTGGTTTG	0.03
AATTGCACGTGCGAGT	0.06
TTCAGCACGTGATAGT	0.05
AATGTCACGTGGTAAG	0.04
TAAGGCACGTGCTAGT	-0.06
GGTTACACGTGTGAAG	0.27
ATCGGCACGTGGCGTG	-0.24
ATATTCACGTGTATGA	0.17
GCAAGCACGTGGGAGG	-0.16
GGGCTCACGTGATAGT	0.61
CATTGCACGTGTTCGG	-0.04
TCTAGCACGTGGGGAG	-0.07
GTACTCACGTGGGATT	0.34
TTTAACACGTGAGTGC	0.28
GATTGCACGTGGGACT	-0.02
TGGGACACGTGGGCAG	-0.11

Sequence	relative binding free energy [kcal/mol]
GGTACCACGTGGGGCT	-0.16
AGGTTCACGTGGTCTA	0.14
TGGGTCACGTGTCGGA	0.27
GGGCGCACGTGATGTT	0.17
TAGGACACGTGGGTAA	-0.27
GTCGGCACGTGTTGTT	-0.16
TGTGCCACGTGGGTAA	-0.15
ACGTCCACGTGGGGTG	-0.22
TTGCGCACGTGTGGTC	-0.15
TCGAACACGTGTTTGT	0.07
GTGCACACGTGAGTTG	0.28
GGACGCACGTGATGGG	0.07
AAGTGCACGTGCAGTA	0.08
ATTGTCACGTGTTAAG	0.1
TATAGCACGTGGTAAA	-0.11
GGGCTCACGTGTTAGG	0.35
GGATGCACGTGGAGGT	-0.05
GCTATCACGTGTATTT	0.24
TTTTTCACGTGCTGTC	0.29
GTTGGCACGTGTGAAC	-0.01
TGGGGCACGTGCGTAC	-0.16
AGCTTCACGTGGTTGG	0.2
AGGGCCACGTGTGTAA	-0.13

Sequence	relative binding free energy [kcal/mol]
TGGTGCACGTGATATA	0.05
TATAACACGTGATTAT	0.06
GGTTTCACGTGGGGCT	0.22
AGCAGCACGTGGGGTG	-0.28
TCGTCCACGTGTTTGT	0.05
AGTGTCACGTGCGCAT	-0.02
TATTGCACGTGCAAGG	-0.04
TATTACACGTGATTAA	0.21
GAAGTCACGTGCGGTT	0.14
TCGGTCACGTGCAGTT	0.12
AGTGGCACGTGTACTT	-0.01
GATCTCACGTGTGTGA	0.25
GGGCGCACGTGGTAGC	0
TGTAGCACGTGCTGTA	-0.18
TTGATCACGTGTGGGG	0.21
TTGCTCACGTGCTTGG	0.01
GGTATCACGTGTGCCT	0.24
GGCGTCACGTGTTTGA	0.18
ATATTCACGTGATCAT	0.32
GTGAGCACGTGGCGCG	-0.1
CGGAGCACGTGAGTAG	0.17
TAAAGCACGTGAGGAA	0.12
ATCATCACGTGCGGGT	0.21
